System: hemagglutinin protein in FluZone influenza vaccine
[1] = FluZone, 0.2 μg hemagglutinin + 20 μg adjuvant s.c. day 0 and 14, pooled sera 14 days post secondary

Substance: N—[(R)-3-Tetradecanoyloxytetradecanoyl]-(S)-2-pyrrolidinomethyl 2-Deoxy-4-O-phosphono-2-[(R)-3-tetradecanoyloxytetradecanoylamino]-3-O—[(R)-3-tetradecanoyloxytetradecanoyl]-β-D-glucopyranoside Triethylammonium Salt [RC-553]
- FluZone titers versus antigen alone (Example 3, text): significantly higher than control sera receiving antigen alone
- Serum Titer IgG [1]: 51,200
- Serum Titer IgG1 [1]: 102,400
- Serum Titer IgG2a [1]: 25,600
- Serum Titer IgG2b [1]: 6400

Source: patent publication US7501399B2, “Immunoeffector compounds” (Corixa Corporation, priority 2000, dated 2009)
